# Results taken from the supplement of paper PMC8728848.
# The other results are listed elsewhere or left out.
# B1: PX9961A-pdi-456-24-456 (Parabacteroides distasonis) (protein)
# chain: KTSSTQLPTIDAISSVADLTNAVNGVYEQQATEVGSYGAEFTLLADLRSGDFQSISTVNHAGPMYRYQTGKNDEMVYSFYKLFYNSLARLNNVLAAAENLEGADVDILKGELYAMRALYHFDLARVFAKLPSTTDMNDLGIVLSTEVYPTDYIGTRATLQQTYDQILKDIETALPLLSKDKQTGHINYWGALAIRARAYLYLEKNKEALADCKEIIASSPYKLYTRDEYIGAWDKEGTNEAIFEILVTPNYNAQRNSIGYFTHASGYGECAATESFLEELAKHPGDIRTELFAKETDNGYDGTYPQKYKGRDGQIYVNNPKVVRLSEVYLIAAEAALKAGDTSAAAGYMNTLRKNRIENYTDVASITLDDILLERRLELFTEGHTAWDAWRNGKSVNNKFVGEVKPGDYRTIMAIPIGEITVSRGQLIQNPGY
# Legend:
# Assay in all cases: glycan array binding signal (z-score within array); higher = stronger binding
# Settings in all cases: glycan notation: IUPAC condensed, linker removed
# [1] = target: GlcNAc(b1-3)Gal(b1-4)GlcNAc(b1-3)Gal(b1-4)GlcNAc(b1-2)Man(a1-3)[GlcNAc(b1-3)Gal(b1-4)GlcNAc(b1-3)Gal(b1-4)GlcNAc(b1-2)Man(a1-6)]Man(b1-4)GlcNAc(b1-4)GlcNAc
# Outline: (§1)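 Columns mapping to the same glycan were averaged after glycan names were converted to IUPAC-condensed notation. The data come from 3228 arrays in the Consortium for Functional Glycomics database, limited to those with an available protein sequence. Binding is reported as a within-array Z-score averaged across arrays of one protein sequence and across linkers.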
# [2] = target: GlcNAc(b1-3)Gal(b1-4)GlcNAc(b1-3)Gal(b1-4)GlcNAc(b1-2)Man(a1-3)[GlcNAc(b1-3)Gal(b1-4)GlcNAc(b1-3)Gal(b1-4)GlcNAc(b1-2)Man(a1-6)]Man(b1-4)GlcNAc(b1-4)[Fuc(a1-6)]GlcNAc
# Outline: as §1
# [3] = target: GlcNAc(b1-3)Gal(b1-4)GlcNAc(b1-3)Gal(b1-4)GlcNAc(b1-2)[GlcNAc(b1-3)Gal(b1-4)GlcNAc(b1-3)Gal(b1-4)GlcNAc(b1-6)]Man(a1-6)[GlcNAc(b1-3)Gal(b1-4)GlcNAc(b1-3)Gal(b1-4)GlcNAc(b1-2)Man(a1-3)]Man(b1-4)GlcNAc(b1-4)[Fuc(a1-6)]GlcNAc
# Outline: as §1
# [4] = target: GlcNAc(b1-3)Gal(b1-4)GlcNAc(b1-3)Gal(b1-4)GlcNAc(b1-3)Gal(b1-4)GlcNAc(b1-2)Man(a1-3)[GlcNAc(b1-3)Gal(b1-4)GlcNAc(b1-3)Gal(b1-4)GlcNAc(b1-3)Gal(b1-4)GlcNAc(b1-2)Man(a1-6)]Man(b1-4)GlcNAc(b1-4)GlcNAc
# Outline: as §1
# [5] = target: GlcNAc(b1-3)Gal(b1-4)GlcNAc(b1-3)Gal(b1-4)GlcNAc(b1-3)Gal(b1-4)GlcNAc(b1-2)Man(a1-3)[GlcNAc(b1-3)Gal(b1-4)GlcNAc(b1-3)Gal(b1-4)GlcNAc(b1-3)Gal(b1-4)GlcNAc(b1-2)Man(a1-6)]Man(b1-4)GlcNAc(b1-4)[Fuc(a1-6)]GlcNAc
# Outline: as §1
# [6] = target: GlcNAc(b1-3)Gal(b1-4)GlcNAc(b1-3)Gal(b1-4)GlcNAc(b1-3)Gal(b1-4)GlcNAc(b1-2)[GlcNAc(b1-3)Gal(b1-4)GlcNAc(b1-3)Gal(b1-4)GlcNAc(b1-3)Gal(b1-4)GlcNAc(b1-6)]Man(a1-6)[GlcNAc(b1-3)Gal(b1-4)GlcNAc(b1-3)Gal(b1-4)GlcNAc(b1-3)Gal(b1-4)GlcNAc(b1-2)Man(a1-3)]Man(b1-4)GlcNAc(b1-4)[Fuc(a1-6)]GlcNAc
# Outline: as §1
# [7] = target: GlcNAc(b1-3)Gal(b1-4)GlcNAc(b1-3)Gal(b1-4)GlcNAc(b1-3)Gal(b1-4)GlcNAc(b1-3)Gal(b1-4)GlcNAc(b1-2)Man(a1-3)[GlcNAc(b1-3)Gal(b1-4)GlcNAc(b1-3)Gal(b1-4)GlcNAc(b1-3)Gal(b1-4)GlcNAc(b1-3)Gal(b1-4)GlcNAc(b1-2)Man(a1-6)]Man(b1-4)GlcNAc(b1-4)GlcNAc
# Outline: as §1
# [8] = target: GlcNAc(b1-3)Gal(b1-4)GlcNAc(b1-3)Gal(b1-4)GlcNAc(b1-3)Gal(b1-4)GlcNAc(b1-3)Gal(b1-4)GlcNAc(b1-2)Man(a1-3)[GlcNAc(b1-3)Gal(b1-4)GlcNAc(b1-3)Gal(b1-4)GlcNAc(b1-3)Gal(b1-4)GlcNAc(b1-3)Gal(b1-4)GlcNAc(b1-2)Man(a1-6)]Man(b1-4)GlcNAc(b1-4)[Fuc(a1-6)]GlcNAc
# Outline: as §1
# [9] = target: GlcNAc(b1-3)Gal(b1-4)GlcNAc(b1-3)Gal(b1-4)GlcNAc(b1-3)Gal(b1-4)GlcNAc(b1-3)Gal(b1-4)GlcNAc(b1-2)[GlcNAc(b1-3)Gal(b1-4)GlcNAc(b1-3)Gal(b1-4)GlcNAc(b1-3)Gal(b1-4)GlcNAc(b1-3)Gal(b1-4)GlcNAc(b1-6)]Man(a1-6)[GlcNAc(b1-3)Gal(b1-4)GlcNAc(b1-3)Gal(b1-4)GlcNAc(b1-3)Gal(b1-4)GlcNAc(b1-3)Gal(b1-4)GlcNAc(b1-2)Man(a1-3)]Man(b1-4)GlcNAc(b1-4)[Fuc(a1-6)]GlcNAc
# Outline: as §1
# [10] = target: GlcNAc(b1-3)Gal(b1-4)GlcNAc(b1-3)Gal(b1-4)GlcNAc(b1-3)GalNAc
# Outline: as §1
# [11] = target: GlcNAc(b1-3)Gal(b1-4)GlcNAc(b1-3)GalNAc
# Outline: as §1
# [12] = target: GlcNAc(b1-3)Gal(b1-4)GlcNAc(b1-3)[GlcNAc(b1-3)Gal(b1-4)GlcNAc(b1-3)]GalNAc
# Outline: as §1
# [13] = target: GlcNAc(b1-3)Gal(b1-4)GlcNAc(b1-6)[Gal(b1-3)]GalNAc
# Outline: as §1
# [14] = target: GlcNAc(b1-3)Gal(b1-4)GlcNAc(b1-6)[GlcNAc(b1-3)Gal(b1-3)]GalNAc
# Outline: as §1
# [15] = target: GlcNAc(b1-3)Gal(b1-4)GlcNAc(b1-6)[GlcNAc(b1-3)]Gal(b1-4)GlcNAc
# Outline: as §1
# [16] = target: GlcNAc(b1-3)GalNAc
# Outline: as §1
# [17] = target: GlcNAc(b1-3)Man
# Outline: as §1
# [18] = target: GlcNAc(b1-3)[GlcNAc(b1-4)][GlcNAc(b1-6)]GlcNAc
# Outline: as §1
# [19] = target: GlcNAc(b1-3)[GlcNAc(b1-6)]Gal(b1-4)GlcNAc
# Outline: as §1
# [20] = target: GlcNAc(b1-3)[GlcNAc(b1-6)]GalNAc
# Outline: as §1
# [21] = target: GlcNAc(b1-4)Gal(b1-4)GlcNAc
# Outline: as §1
# [22] = target: GlcNAc(b1-4)GlcNAc
# Outline: as §1
# [23] = target: GlcNAc(b1-4)GlcNAc(b1-4)GlcNAc
# Outline: as §1
binder,measurement,setting,value
B1,glycan array binding signal (z-score),[1],0.444
same,glycan array binding signal (z-score),[2],-0.098
same,glycan array binding signal (z-score),[3],0.465
same,glycan array binding signal (z-score),[4],0.056
same,glycan array binding signal (z-score),[5],0.199
same,glycan array binding signal (z-score),[6],0.351
same,glycan array binding signal (z-score),[7],0.063
same,glycan array binding signal (z-score),[8],2.18
same,glycan array binding signal (z-score),[9],0.488
same,glycan array binding signal (z-score),[10],0.025
same,glycan array binding signal (z-score),[11],0.389
same,glycan array binding signal (z-score),[12],-0.009
same,glycan array binding signal (z-score),[13],-0.362
same,glycan array binding signal (z-score),[14],-0.509
same,glycan array binding signal (z-score),[15],-0.395
same,glycan array binding signal (z-score),[16],-0.11
same,glycan array binding signal (z-score),[17],-0.376
same,glycan array binding signal (z-score),[18],-0.105
same,glycan array binding signal (z-score),[19],0.067
same,glycan array binding signal (z-score),[20],-0.09
same,glycan array binding signal (z-score),[21],-0.036
same,glycan array binding signal (z-score),[22],-0.056
same,glycan array binding signal (z-score),[23],-0.431
